The source of these data is PMC12136788.

This is one part of the list.

T1: UNK ZnF1-6 (called full-length) (human, UniProt Q9C0B0 30-357)
T1 sequence: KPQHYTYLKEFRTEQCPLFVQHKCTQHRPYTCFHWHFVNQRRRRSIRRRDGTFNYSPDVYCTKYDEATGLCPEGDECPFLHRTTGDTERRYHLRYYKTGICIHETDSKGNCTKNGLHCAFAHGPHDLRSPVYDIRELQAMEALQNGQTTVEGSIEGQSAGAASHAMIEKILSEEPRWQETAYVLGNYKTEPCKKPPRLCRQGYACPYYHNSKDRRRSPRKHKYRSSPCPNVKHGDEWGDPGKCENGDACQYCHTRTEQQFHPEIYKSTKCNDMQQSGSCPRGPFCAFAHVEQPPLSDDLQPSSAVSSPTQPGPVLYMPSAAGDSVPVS

B1: chr5:93620789:93620892:-|3pUTR|ENSG00000113391|unk|total|mutant (ssRNA)
RNA: GGGAGUUCUACAGUCCGACGAUCCAGCCCCUCAUCCGAUUGUUUUCUUCCCAGAGCCCAGGGUCGUGAUAUAUACAUCUAAACCGCGUUUUGCAUUAUUUCCCGAUGAGUGCAACUGUCAAAGCAAUAUGGGUUCACUGGUCGCAACAGAGGAUUGAGCAUCA
B2: chr1:165910223:165910324:+|3pUTR|ENSG00000143179|unk|total|mutant (ssRNA)
RNA: GGGAGUUCUACAGUCCGACGAUCCCAGCAUUUGGCCAACUCUGUAUCUGAACUUGAGCUUUCUAUGGAACAAACAAUGGUCUCCGUUUUUUAAGAGCCUCUGGGUCUCUGAUUCCAUGGAGAGUCAGGAGCCGAAUCCGUGGACAACAGAGGAUUGAGCAUCA
B3: chr19:17405403:17405546:-|CDS|ENSG00000130303|unk|FALSE|unique (ssRNA)
RNA: GGGAGUUCUACAGUCCGACGAUCUGACUAUUGCAGAGUGCCCAUGGAAGACGGGGAUAAGCGCUGUAAGCUUCUGCUGGGGAUAGGAAUUCUGGUGCUCCUGAUCAUCGUGAUUCUGGGGGUGCCCUUGAUUAUCUUCACCAUCAACAGAGGAUUGAGCAUCA
B4: chr9:83806335:83806438:-|CDS|ENSG00000165113|unk|total|mutant (ssRNA)
RNA: GGGAGUUCUACAGUCCGACGAUCUGGCUCUGAUUCUGAACCUGGAAAAGGUAAAGGUCGAAAUACUGGAAAGUCUCAAACUUCCGGAAGCAAGUCAACUACAAAUGAGAAAAAAAGAGAGAAAAGAAGAAAAAAGAAGGAACACAACAGAGGAUUGAGCAUCA
B5: chrX:85861749:85861850:-|3pUTR|ENSG00000188419|msi1|total|mutant (ssRNA)
RNA: GGGAGUUCUACAGUCCGACGAUCCUAAUUUAAAAUUUCAGAAAAUGCUAUUAAAGAAUUUUGAUUCAAGUAUUUAAACUGUUCCGUUAUGCAUGCUUCUUAUUAACCGAAAAUGAUAAUACCAUUCCGUUCCGUGAUCAGUAUCAACAGAGGAUUGAGCAUCA
B6: chr11:57661263:57661364:+|CDS|ENSG00000172409|unk|total|mutant (ssRNA)
RNA: GGGAGUUCUACAGUCCGACGAUCCCACCUACUGAGUGUCCGCACUGCCGAGGGUACAGAGGAGAACCUGUCCGAGACAAGUGCCGCUGGCUUCAUUGUGGUGACCAGUGUGGACCUGGAGCAUCAGGUGUUUACUGUUCUGUCCAACAGAGGAUUGAGCAUCA
B7: chr3:9371215:9371332:+|CDS|ENSG00000134077|unk|FALSE|unique (ssRNA)
RNA: GGGAGUUCUACAGUCCGACGAUCUGGACAAGAAGUCAAAAUCGAUCAGAGAAAUGUUAAAAAAGAGUUCACUAGCCAUGCUUUAGAUUCUCAUAUCUUAGAUUAUUAUGAAAAUCCAGCCAUCAAAGAGGAUGUAUCAACAUUCAACAGAGGAUUGAGCAUCA
B8: chr10:126014591:126014692:-|3pUTR|ENSG00000148848|msi1|total|mutant (ssRNA)
RNA: GGGAGUUCUACAGUCCGACGAUCAAAGGUUUGUCUCCUGAAAUUUUUUAAGUUUGUUUUCCUGACACAUGUAAUCAGAUGUGCCGCAACCGAGGGAAACGAAGCCUAACAUUCUCCAUUGUGGAAAUACACACAGGAGGUUACCAACAGAGGAUUGAGCAUCA
B9: chr19:12699786:12699848:-|3pUTR|ENSG00000105576|msi1_unk|FALSE|overlapping (ssRNA)
RNA: GGGAGUUCUACAGUCCGACGAUCCCUGCUCCAUCCAUCCCUCCUGGGCGCCAGACCCUCCAUCCAAGCCCUGUGUCUUUCCAUAGUCAGGGUCAGGCCCUGCAUCUAUUCCAAGGGGCACUCAGUACACAUUCCAUAAAUUAGCAACAGAGGAUUGAGCAUCA
B10: ENSG00000198589:be:win_951|CDS|ENSG00000198589|bound_else_gene|NA|bound_elsewhere_windowed (ssRNA)
RNA: GGGAGUUCUACAGUCCGACGAUCAUGUUAUGUGAAUGGUGAGCUGGCUUCCUAUGGAGAGAUAACAUGGUUUGUCAACACUAGCGAUACCUUUGACAAAUGUUUCCUGGGCUCAUCAGAAACAGCAGAUGCUAAUAGAGUAUUCAACAGAGGAUUGAGCAUCA
B11: chr8:76864132:76864233:+|CDS|ENSG00000091656|msi1|total|mutant (ssRNA)
RNA: GGGAGUUCUACAGUCCGACGAUCUCAAGCUUGCACAAAGAGAAAACAAUCAAACAAGCAAUGAGAAAUGCCAAAGAGCAUGUCCGAUUAUUACCUCACUCAGUCUGCUCCCCUAAUCCUAACACCACAUCUACCUCGCAGUCUCAACAGAGGAUUGAGCAUCA
B12: chr3:154334942:154337698:-|three_prime_utr|ENSG00000174948|control|control|control (ssRNA)
RNA: GGGAGUUCUACAGUCCGACGAUCAACUGUGAAACUAACACCUUUGUUAUGAGACUGAUUUCCUUUUAUUUGUUGGCUUACAUUAGUUUUACUGAUUUAAUAGUUAAUUUUUUUGUGGGAACAACUGGAACUAGUGUAAACACUCAACAGAGGAUUGAGCAUCA
B13: chrX:65740646:65740790:+|3pUTR|ENSG00000147065|msi1|FALSE|unique (ssRNA)
RNA: GGGAGUUCUACAGUCCGACGAUCGGCCAUUCUAUUGUGGCAAGGCUGAGUAGAAGAUCCUACCCCAAUUCCUUGUAGGAGUAUAGGCCGGUCUAAAGUGAGCUCUAUGGGCAGAUCUACCCCUUACUUAUUAUUCCAGAUCUGCAACAGAGGAUUGAGCAUCA
B14: chr18:2804133:2804242:+|3pUTR|ENSG00000101596|unk|total|mutant (ssRNA)
RNA: GGGAGUUCUACAGUCCGACGAUCGGUUAAAGAGAAAUGACUUUUCCGGAACCCGACUUGAACGUAUAAUUAAUAUGUGGAACCCGUUUGCUUUUAUAAUUCAUUGUAUCAAGAAGGAGUCAUGUUUUAAAUCCAAGGCAUUGACAACAGAGGAUUGAGCAUCA
B15: chr19:51964856:51966214:-|CDS|ENSG00000256683|control|control|control (ssRNA)
RNA: GGGAGUUCUACAGUCCGACGAUCGCCUUCUGUGGCCCCUCAGACAUCAUUAAACAUCAGCGGCCUCCUCGCAAACAGGAACGUAGUCCUUGUGGGACAGCCAGUGGUCAGAUGUGCAGCCUCAGGAGAUAACAGAGGAUUUGCCAACAGAGGAUUGAGCAUCA
B16: chr7:77355212:77355430:-|CDS|ENSG00000186088|control|control|control (ssRNA)
RNA: GGGAGUUCUACAGUCCGACGAUCGCUCUAUAGAGCACUGCUCAGCCAGUCGUCUUUAUUACAGCUUCUGCAGAACACUUGCUUAGACUGUGAGAAGAUGGCUGCGUUGCACUGCGCGCUCUACUGCGGUCAAGGUGCGCAGUUCAACAGAGGAUUGAGCAUCA
B17: chr13:42886387:42888493:-|three_prime_utr|ENSG00000133106|control|control|control (ssRNA)
RNA: GGGAGUUCUACAGUCCGACGAUCCAUAUUUAAUCUCUACUGCCAGGGAAAUGCUACAUUAUUUUUCUAAUUGGAAGUAUAAUUAGAGUGAUGUUGGUAGGGUAGAAAAAGAGGGAGUCACUUGAUGCUUUCAGGUUAAUCAGACAACAGAGGAUUGAGCAUCA
B18: chr7:5606511:5606625:+|3pUTR|ENSG00000075618|msi1_unk|total|mutant (ssRNA)
RNA: GGGAGUUCUACAGUCCGACGAUCGGGUGUCUUGGUCUUUUAUUUUUUGUAAGUGUCAUUUGUAUAACUCUAAACGCCCAUGACCGCCGCUUCAAACUGGAAACCGCGAAAUAAAAUAACUCAGUCUGCAGCCCCAGGCCGGCCCAACAGAGGAUUGAGCAUCA
B19: chr22:41245667:41245769:-|3pUTR|ENSG00000100401|msi1|FALSE|unique (ssRNA)
RNA: GGGAGUUCUACAGUCCGACGAUCCAAUGUCCGAGCUGCAUCUGGACGCUGCUCUUAAAGGACCUCCUGGGGCAGGGGAGCGGUAGGGUCUGGACUGGGCAGAUGCUGUAUGACCUCCCUGAGCACCCGUGACUGCCCCAUGCUCAACAGAGGAUUGAGCAUCA
B20: chr11:77702383:77702481:-|5pUTR_CDS|ENSG00000048649|msi1_unk|FALSE|overlapping (ssRNA)
RNA: GGGAGUUCUACAGUCCGACGAUCAUUUUUAGAGGAACAGAAAGAAAGUGAAAAGAUGAAAAGUGAGGAGCAGCCUAUGGAUUUAGAAAACCGUUCUACAGCCAAUGUUCUAGAAGAGACUACUGUGAAAAAAGAAAAAGAAGACAACAGAGGAUUGAGCAUCA
B21: ENSG00000124766:be:win_2651|3pUTR|ENSG00000124766|bound_else_gene|NA|bound_elsewhere_windowed (ssRNA)
RNA: GGGAGUUCUACAGUCCGACGAUCAAAUUAUCACCAGCUUUUUUUCAUUCUUAACUCUUUAAAGGAUUCAAACGCAACUCAAAUCUGUGCUGGACUUUAAAAAAACAAUUCAGGACCAAAUUUUUUCUCAGUGUGUGUGUUUAUCAACAGAGGAUUGAGCAUCA
B22: chr10:62092816:62092917:+|CDS|ENSG00000150347|msi1|total|mutant (ssRNA)
RNA: GGGAGUUCUACAGUCCGACGAUCUUUUACAUCACCGACAAAUUCUCAGCAGCUGUACAGACACUUGGCUGCGGCUACACCUGCCGGAAGUUCAUAUGGGGACCUUUUGCAUAACAGCAUUUACCCUUCCGCUGCUAUAAAUCCCAACAGAGGAUUGAGCAUCA

The target of the assay is T1, UNK ZnF1-6 (called full-length). As to the kind of experiment: nsRBNS (natural sequence RNA bind-n-seq); RBNS binding buffer (assumed for nsRBNS): 25 mM Tris pH 7.5, 150 mM KCl, 3 mM MgCl2, 0.01% Triton X-100, 500 ug/ml BSA, 20 U/ml SUPERase-In, 4 C; UNK is unkempt and MSI1 is Musashi-1; names of the RNAs are library labels; protein concentration not given here; high values mean tight binding.
In turn, B1 displayed a binding signal of 0.615 enrichment R. The figure for B2 is 0.546 enrichment R; for B3 it is 0.856 enrichment R; for B4 it is 0.665 enrichment R.

Turning to B5, the binding signal was 0.403 enrichment R. For B6 the value was 0.526 enrichment R; for B7, 1.15 enrichment R. Regarding B8, the binding signal is 0.415 enrichment R. For B9 the value was 1.1 enrichment R; for B10, 0.819 enrichment R. The figure for B11 is 0.565 enrichment R; for B12 it is 1.63 enrichment R; for B13 it is 0.668 enrichment R.

As for B14, the binding signal came out at 0.568 enrichment R. As for B15, the binding signal amounted to 0.849 enrichment R. With B16, the binding signal is 0.334 enrichment R. Take B17: the binding signal turned out to be 0.481 enrichment R. For B18 the value was 0.606 enrichment R; for B19, 0.451 enrichment R; for B20, 0.701 enrichment R. The figure for B21 is 1.2 enrichment R; for B22 it is 0.511 enrichment R.
